# Reference: PubChem BioAssay (NCI)
#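 Interpolation was linear, between the two tested concentrations surrounding the appropriate level; five concentrations were tested over 48 hours in 96-well plates. TGI is the concentration that stops growth completely.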 Some entries of the source have several records that differ or are many. This is not the full list of results. The source may hold further records. A record mostly stands for its own series of concentrations, not given here; some values may only mark the edge of a range.
# Tested on: MDA-MB-468 breast
# Experiment: NCI tumour cell line growth inhibition, 48 h
smiles,measurement,value
CN1CC[C@H](N(C)C(=O)N2CC(c3cc(F)ccc3F)=C[C@@]2(CO)c2ccccc2)[C@H](F)C1,TGI,51.6 nM and 3.34 µM
